Results taken from PubChem BioAssay AID1745845 (National Center for Advancing Translational Sciences (NCATS), 2022).
About 2,600 (0.72%) of roughly 360,000 compounds were called active. Inconclusive results, whose numbers are uncertain, are shown with a selection of clear calls. Calls follow the shape of the dose curve; as a rule, active = well fitted inhibition curve with a large enough effect; inconclusive = small, poorly fitted or top-dose-only effect; inactive = no such curve, though single readings can be large or run the other way. Potencies beside an inconclusive call are fits to weak or partial responses and may not hold up.

Assay: Primary qHTS for Inhibitors of ATXN expression; also: nearly all actives have a fitted effect of over 55% in size
Settings: HEK-293 ATXN2-luciferase reporter, luminescence, 24 h; activity change, negative = inhibition: at 57 µM (top of the series)
In short: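 ATXN2-luciferase reporter cells (luciferase flanked by upstream and downstream ATXN2 gene portions) were treated 24 h at 37 °C with compounds at up to 57 uM. SteadyGlo luminescence gave expression; GF-AFC fluorescence gave viability.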
% is scaled to controls: 0 for no effect and ±100 for the full control effect; potency is read from the fitted curve at half-maximal effect; tags tell the direction and shape of the fitted curve.

Potency, active:
Cc1ccccc1NC1=C/C(=N\S(=O)(=O)c2ccc(C(=O)O)cc2)c2ccccc2C1=O 8.91 µM, O=C(Nc1ccccc1NC(=O)NC1CCCCC1)NC1CCCCC1 20 µM

Potency, inconclusive:
Cc1c2cnn(CC(=O)NCc3ccccn3)c(=O)c2c(C)n1Cc1ccc(Cl)cc1 35.5 µM [inhibitor, partial curve, poor fit], O=C(/C=C/c1ccccc1)CCN1CCOCC1 28.2 µM [inhibitor, single point], CC(C)NC1CCC(Nc2ccnc3cc(Cl)ccc23)CC1 (configuration not stated) 11.2 µM [inhibitor, partial curve, poor fit], CCC(CC)C(=O)Nc1ccc(Sc2ccc([N+](=O)[O-])cc2)cc1 10 µM [inhibitor, partial curve, poor fit], CCc1ccc(NC(=O)C(=O)NCCN2CCN(Cc3ccc([N+](=O)[O-])cc3)CC2)cc1 10 µM [inhibitor, partial curve, poor fit], CC(C)Cc1ccc(CN2CCCC(NC(=O)c3nn(C)c(=O)c4ccccc34)C2)cc1 (configuration not stated) 39.8 µM [inhibitor, single point], COc1cccc(CNCC(O)(c2ccc(Cl)cc2)c2ccc(Cl)cc2)c1 22.4 µM [inhibitor, partial curve, poor fit], C=CC[C@@H](CC(=O)N(CCO)Cc1ccccc1)C(=O)N[C@H](COC(=O)[C@@H](CC=C)Cc1ccc(F)cc1)Cc1ccccc1 31.6 µM [inhibitor, single point], O=C(NCCc1ccccc1)c1ccc2c(c1)S(=O)(=O)c1cc(Cl)ccc1C2=O 39.8 µM [inhibitor, single point], COc1ccc(C2=NN(c3ccc(C=O)cc3)C(c3ccccc3)C2)cc1 (configuration not stated) 3.98 µM [inhibitor, partial curve], COc1ccc(NC(=O)Nc2sc3nc4n(c(=O)c3c2C)CCC(C)CC4)cc1OC (configuration not stated) 39.8 µM [inhibitor, partial curve, poor fit], CCc1cc2cc3c(cc2nc1SCC(=O)Nc1cc(C)on1)OCO3 25.1 µM [inhibitor, single point], COc1cccc(/C=N/NC(=O)c2cc3c(OC)cccc3[nH]2)c1O 6.31 µM [inhibitor, partial curve, poor fit], COC(=O)N/N=C\c1ccc(-c2cc(Cl)c(Cl)cc2Cl)o1 39.8 µM [inhibitor, single point], Clc1ccc(CN=C(Nc2ccccc2)NC2CCCCC2)cc1 0.67 µM [inhibitor, full curve, poor fit], CCC(CC)NC(=O)CON=C1c2ccccc2-c2ccccc21 28.2 µM [inhibitor, partial curve, poor fit], Cc1ccc(C(=O)N2CCN(c3ccc(C(F)(F)F)cn3)CC2)c(C)c1 15.8 µM [inhibitor, partial curve, poor fit], Cc1ccccc1N=CC1=C(O)c2ccccc2C1=O 13.4 µM [inhibitor, partial curve, poor fit], COc1ccc(OC)c(NC(=O)Nc2nc(C(N)CCc3ccccc3)cs2)c1 (configuration not stated) 39.8 µM [inhibitor, single point], Cc1oc(-c2cccc3ccccc23)nc1CN1CCN(c2ncnc3ccccc23)CC1 42.3 µM [inhibitor, partial curve, poor fit], CCN1C(=O)/C(=C2/Sc3ccc(OC)cc3N2C)SC1=Nc1cccc(O)c1 20 µM [inhibitor, partial curve], CCCn1c(SCC(=O)Nc2ccc3c(c2)OCO3)nc2c1c(=O)n(C)c(=O)n2C 15.8 µM [inhibitor, partial curve, poor fit], CCOC(=O)c1sc2ncn(/N=C/c3ccc(O)cc3)c(=O)c2c1C 3.55 µM [inhibitor, partial curve, poor fit], CC(C)c1ccc2c(c1)C(N1CCNCC1)Cc1ccc(F)cc1S2 (configuration not stated) 28.2 µM [inhibitor, partial curve, poor fit], COc1ccc(-n2nnnc2C(c2ccnc3ccccc23)N2CCN(C/C=C/c3ccccc3)CC2)cc1 (configuration not stated) 31.6 µM [inhibitor, partial curve, poor fit], Oc1ccc(C[C@H]2CNCCN2CCc2cccc3ccccc23)cc1 28.2 µM [inhibitor, single point], Cc1ccc2c(c1)S/C(=C/c1ccc[n+](CCO)c1)N2C 42.3 µM [inhibitor, single point], Cc1ccc(S(=O)(=O)N(C(=O)c2ccncc2)c2ccc(OC(=O)c3ccncc3)c3ccccc23)c(C)c1 25.1 µM [inhibitor, single point], Cc1cccc(N2CCN(C(=O)c3cccc(S(=O)(=O)N4CCCCC4)c3)CC2)c1C 25.1 µM [inhibitor, single point], CNC(C)C(=O)NC(C(=O)NC(C)C(=O)NNc1ccccc1)C(C)C (configuration not stated) 3.55 µM [inhibitor, full curve], COc1ccc(NC(=O)C2CCN(c3nc(C)nc4c3CCC4)CC2)cc1 17.8 µM [inhibitor, partial curve, poor fit], CCc1nc(N2CCN(C(=S)NCCCOC)CC2)c2c3c(sc2n1)CCCC3 26.7 µM [inhibitor, partial curve, poor fit], C/C(=C\[C@@H](NP(=O)(c1ccccc1)c1ccccc1)c1ccccc1)CO[Si](c1ccccc1)(c1ccccc1)C(C)(C)C 31.6 µM [inhibitor, single point], C=CC[C@]12CC=CC(=O)[C@@]1(O)O[C@H](c1ccc(OC)c(OC)c1)[C@H]2C 25.1 µM [inhibitor, single point], O=C(NN=Cc1c(O)ccc2ccccc12)C1CC1 11.9 µM [inhibitor, partial curve, poor fit], COc1cc(OC)c(N(C)S(=O)(=O)c2cccc(C(=O)Nc3nccs3)c2)cc1Cl 35.5 µM [inhibitor, single point], O=c1cc(-c2cccnc2)oc2c1ccc1ccccc12 39.8 µM [inhibitor, partial curve, poor fit], O=S(=O)(Nc1ccc2nc(-c3cccc(Cl)c3)oc2c1)c1ccccc1 39.8 µM [inhibitor, single point], Cc1nc(C)c(-c2csc(Nc3ccc(S(N)(=O)=O)cc3)n2)s1 29.9 µM [inhibitor, single point], O=C(NCCNC(=O)c1cc(F)cc(F)c1)c1cc(F)cc(F)c1 7.08 µM [inhibitor, single point], COc1cc(/C=N/n2c(-c3ccc4c(c3)NC(=O)CO4)csc2=Nc2cccc(C)c2)ccc1O 2.51 µM [inhibitor, partial curve], CCC(CO)Oc1cc(NCc2ccc(C(C)(C)C)cc2)c2ncn(C(C)C)c2c1 (configuration not stated) 35.5 µM [inhibitor, single point]

Activity change, negative = inhibition, inactive:
CCOC(=O)c1c(Oc2ccc(OC)cc2)nnc(-c2ccccc2)c1-c1ccccc1 -20.2%, COc1cc(SC)ccc1C(=O)Nc1ccc(C)cc1 101%, O=C(N/N=C/c1cccnc1)c1cc(-c2ccccc2OCc2ccccc2)n[nH]1 -2.85%, Cc1cc(C)c2c(=O)cc(CSc3nnc(COc4ccccc4C)n3C)[nH]c2c1 10.3%, Cc1ccc(S(=O)(=O)N(C)c2ccccc2C(=O)Nc2c(F)cccc2F)cc1 11.4%, COc1ccc(-c2nnc3c4ccccc4c(C)nn23)cc1S(=O)(=O)N1CCN(CCO)CC1 -13.4%, Cc1ccc(NC(=O)c2ncn(CC(=O)NCc3ccc4[nH]ccc4c3)n2)cc1C 25.8%, CC1CCN(Cc2c(C(=O)N3CCc4ccccc4C3)nc3ccc(Cl)cn23)CC1 -28%, O=C(NCCCNCc1ccccc1)/C(=N\O)c1ccccc1 -3.41%, CCN1CCN(c2ccc(S(=O)(=O)N3CCCCC3)cc2NC(=O)c2cccc(OC(F)F)c2)CC1 4.55%, Cc1ccc(C(=O)Nc2nc(C)c(C(=O)Nc3ccc4c(c3)CCC4)s2)cc1 24.4%, COc1cccc(/C=C/C(=O)Nc2ccc3c(c2)OCCO3)c1OC -1.45%, Cc1ccc(C)c(Nc2c([N+](=O)[O-])c(=O)oc3ccccc23)c1 -18.6%, O=S(=O)(c1ccc(F)cc1)N1CCCC1 0.412%, CCn1cnc2cc(NCc3cccs3)ccc21 38.5%, CN(C)[C@@H](CO)c1nnc([C@H](Cc2ccc(O)cc2)NC(=O)C2CCNCC2)o1 3.58%, Cc1cc2ccccc2n1CCNC(=O)C1CC1 -4.44%, COc1ccc(NC(=O)Cc2c(C)n(C(=O)c3ccc(Cl)cc3)c3ccc(OC)cc23)cc1 5.26%, CCNc1ccc(C(=O)OCC(=O)N(Cc2ccccc2)C(C)(C)C)cc1[N+](=O)[O-] 7.97%, Cc1ccc2onc(CC(=O)N(C)c3ccccc3)c2c1 14.2%, COc1cccc(-c2ccc3c(N)c(C(=O)NCc4ccc(Cl)cc4)sc3n2)c1 0%, O=C(NN1CCOCC1)c1cc(-c2ccccc2)nc2ccccc12 -1.56%, CCc1ccc(CNC(=O)c2cc(-c3ccc(Br)s3)nc3ccccc23)cc1 6.11%
